# Measured values as given in PubChem BioAssay AID651820 (National Center for Advancing Translational Sciences (NCATS), 2012).
# Where “and” joins values, the source holds several entries; their conditions need not be identical. Identical values can stand only once. About 12,000 (3.5%) of roughly 340,000 compounds were called active. The inconclusive results got no clear call from the source; some entries with a clear call stand among them for comparison. The call rests on the fitted dose curve; in most records, active means well fitted inhibition curve with a large enough effect; inconclusive means small, poorly fitted or top-dose-only effect, or another doubt; inactive means no such curve, though single readings can be large or run the other way. No potency is given beside an inconclusive call; the fits are too rough.
# Assay: qHTS Assay for Inhibitors of Hepatitis C Virus (HCV)
# Details: Huh7.5.1 HCVcc-Cre (HCVcc is cell-culture hepatitis C virus) infection, luciferase reporter, 44 h; activity change, negative = inhibition: at 41.8 µM (top of the series) unless noted
# Outline: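 Cells (1,000/well) were plated 4 h before compound, then infected with HCVcc-Cre virus (~0.5 moi). After 44 h further culture, infection was read as luciferase luminescence following a 15 min substrate incubation at room temperature.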
# On the % scale 0 is the no-effect control and ±100 the full control effect; potency means the concentration at half of the fitted maximal effect; tags describe the fitted curve by direction and shape.
SMILES,"activity change, negative = inhibition",Potency
COc1ccc(-c2nn(CCC(=O)O)cc2/C=N/NC(N)=S)cc1,inactive: 14.2%,
c1ccc(-c2noc(CSc3nc4ccccc4o3)n2)cc1,inactive: 23.6%,
Cc1cc(C(=O)N2CCCC(C(=O)c3ccc(Oc4ccccc4)cc3)C2)n[nH]1 (configuration not stated),,"inconclusive [inhibitor, single point]"
O=C1[C@@H]2Cc3c([nH]c4ccccc34)C(c3cccc(Br)c3)N2C(=O)CN1C1CCN(Cc2ccccc2)CC1 (some centres not stated),,"inconclusive [inhibitor, partial curve]"
COc1ccc(CN2CCN(C(=O)Cn3nc(C)n4cccc4c3=O)CC2)c(OC)c1OC,inactive: -6.47%,
Cc1ccc(S(=O)(=O)NCCC(=O)Nc2ncccc2O)cc1C,,"inconclusive [inhibitor, partial curve]"
COc1ccc(-c2cc(C(F)(F)F)nc(SCC(=O)N(C)Cc3cn(C)nc3C)n2)cc1OC,,"inconclusive [inhibitor, single point]"
Cc1ccc2nc(-c3cccc(Br)c3)cc(C(=O)NCC3CCCO3)c2c1 (configuration not stated),,"inconclusive [inhibitor, partial curve, poor fit]"
O=C(Cc1sc(Nc2ccccc2)nc1-c1ccccc1)NCc1ccccc1,,"inconclusive [inhibitor, partial curve]"
O=C(CSc1nc2ccccc2s1)Nc1ccc(Cl)c(S(=O)(=O)N2CCOCC2)c1,,"inconclusive [inhibitor, partial curve]"
CCn1c(C)c(C2=CCN(S(=O)(=O)c3ccccc3)CC2)c2ccccc21,,"inconclusive [inhibitor, single point]"
O=C(NC(=S)Nc1ccc(Oc2ccc(Cl)cc2)cc1)c1ccccc1,,"inconclusive [inhibitor, single point]"
CCn1nccc1C(=O)Nc1cc(Cl)ccc1Cl,,"inconclusive [inhibitor, full curve, poor fit]"
CCC(/C=C1\Sc2ccc(OC)cc2N1CC)=C\c1sc2ccc(OC)cc2[n+]1CCCS(=O)(=O)[O-],,"inconclusive [inhibitor, single point]"
O=C1c2cccc3cccc(c23)C(=O)N1CCN1CCN(C(=S)Nc2ccccc2)CC1,,"inconclusive [inhibitor, single point]"
Cc1cccc(-n2ncc3c2CCCC3NC(=O)C2CCOCC2)c1C (configuration not stated),,active: 22.4 µM
CSc1ncnc2c1ncn2CC(=O)C1CCC2C3CCC4=CC(=O)CCC4(C)C3CCC12C (configuration not stated),,"inconclusive [inhibitor, partial curve]"
Cc1ccc(OCCN(C)C(=O)CC2C(=O)NCCN2CC(C)(C)C)cc1 (configuration not stated),inactive: -9.36%,
Cc1cccc(C(=O)OCc2cnc(Cl)s2)c1,inactive: 11%,
CCC1=C2CC[C@H]3C(=O)N(C)C(=O)[C@H]3[C@H]2[C@@]2(Cc3ccccc3)C(=NCC(=O)OC)OC(=O)N2C1=O,inactive: 59.7%,
COCc1cc(C)nc(NCCO)c1C#N,inactive: 7.67%,
Cc1cc(N(CCO)CCO)ccc1N=Nc1cc(F)ccc1F,,"inconclusive [inhibitor, single point]"
COc1ccccc1-c1cc(C(=O)Nc2cc(C)n(Cc3ccc(Cl)cc3)n2)no1,,"inconclusive [inhibitor, full curve]"
O=S(=O)(c1ccc(SCCOc2ccc(F)cc2)nc1)N1CCCC1,,active: 15.8 µM

SMILES,"activity change, negative = inhibition",Potency
Clc1ccc(C2=CSC3=Nc4cccc5cccc(c45)N23)cc1,,active: 5.01 µM
C[C@H](CO)N1C[C@H](C)[C@@H](CN(C)Cc2ccccc2)Oc2c(NC(=O)Cc3ccccc3)cccc2C1=O,,"inconclusive [inhibitor, single point]"
COc1ccc(Cl)cc1S(=O)(=O)N1CCN(C(=O)COc2ccccc2)CC1,inactive: -11.4%,
Cc1ccc(NC(=O)CN2c3cccc4cccc(c34)S2(=O)=O)cc1S(=O)(=O)N1CCOCC1,,active: 11.2 µM
Cc1ccc(C(=O)Nc2ccccc2N2CCCC2)cc1,inactive: -18.4%,
O=C1/C(=C/c2cc([N+](=O)[O-])ccc2Cl)N2CCC1CC2,,"inconclusive [inhibitor, partial curve]"
CCOC(=O)C1CCN(CC(C)(C)NS(=O)(=O)c2ccc(Cl)cc2)CC1,inactive: 5.94%,
O=c1[nH]c2cc3c(cc2cc1C(c1nnnn1Cc1ccccc1)N1CCCc2ccccc21)OCO3 (configuration not stated),inactive: 15.9%,
Cc1ccc(N2C(=O)CC(Nc3ccccc3)C2=O)cc1 (configuration not stated),inactive: 8.22%,
Cc1ccccc1NC(=O)Cn1nnc(S(=O)(=O)c2ccc(C(C)(C)C)cc2)c1N,,"inconclusive [inhibitor, full curve]"
O=C(c1ccccc1)c1ccc(C(=O)N2CCN(c3ccc(O)cc3)CC2)cc1,inactive: -2.97%,
O=C(On1c(-c2ccccc2)nc2ccccc2c1=O)c1ccco1,,"inconclusive [inhibitor, partial curve]"
Cc1ccc(Cl)cc1NC1=C/C(=N\S(=O)(=O)c2cccs2)c2ccccc2C1=O,,active: 5.01 µM and active: 10 µM
Cc1cc2c(C)cc(=O)[nH]c2cc1NC(=O)CCl,,active: 11.2 µM
CNC(=S)N1CCN(c2ccc([N+](=O)[O-])cc2)CC1,inactive: -4.67%,
CC(C)(C)OC(=O)C(C)(C)O/N=C(\C(=O)O)c1csc(N)n1,inactive: 9.16%,
CCN(c1ccccc1)S(=O)(=O)c1ccc(Cl)c(NC(=O)CSc2nncs2)c1,,"inconclusive [inhibitor, partial curve, poor fit]"
CCc1c(C)nc2ncnn2c1NCCc1ccc(OC)c(OC)c1,,"inconclusive [inhibitor, partial curve]"
COC(=O)CC1C(=O)NCCN1C(=O)c1cc([N+](=O)[O-])ccc1Cl (configuration not stated),,"inconclusive [inhibitor, single point]"
O=C(Cc1n[nH]c(=O)[nH]c1=O)N/N=C/CCc1ccccc1,inactive: 1.44%,
CCN(CC)S(=O)(=O)c1c(OC)cc(C)c(Cl)c1C,inactive: -8.78%,
O=S(=O)(c1ccc(F)cc1)n1ccc(-c2cccc(OCc3ccc(Cl)cc3Cl)c2)n1,inactive: -13.8%,
CCN1C(=NCc2ccc(OC)cc2)N[C@@H](c2ccccc2)C(C(=O)OC)=C1C,inactive: -3.18%,
COC(=O)c1ccc(CSc2ncnc3c2nnn3-c2ccc(F)cc2)o1,,"inconclusive [inhibitor, single point]"

SMILES,"activity change, negative = inhibition",Potency
COc1ccc(C(=O)Nc2ccc(O)c3c(=O)cc(-c4cccc(Cl)c4)oc23)cc1,,"inconclusive [inhibitor, single point]"
O=C(Nc1cccc2ncccc12)c1cc([N+](=O)[O-])ccc1Cl,,active: 8.91 µM
CC1N/C(=C\C(=O)c2ccccc2)N(O)C1(C)C (configuration not stated),,"inconclusive [inhibitor, partial curve]"
CNc1ccc(C(=O)N2CCN(S(=O)(=O)c3ccc4c(c3)OCCCO4)CC2)cc1[N+](=O)[O-],,"inconclusive [inhibitor, single point]"
CCN(CC)S(=O)(=O)c1ccc(S(=O)(=O)N(Cc2ccccn2)Cc2ccco2)cc1,,active: 10 µM
CC(=O)Nc1ccc(OCC(O)Cn2c3ccccc3c3ccccc32)c(C)c1 (configuration not stated),,"inconclusive [inhibitor, partial curve]"
CCN(CC(=O)Nc1ccc(NC(C)=O)cc1)C(=O)Cc1ccc(S(=O)(=O)N2CCOCC2)s1,inactive: 22.3%,
COc1ccc(NC(=O)c2sc3ncn(CC(=O)N4CCN(c5ccccn5)CC4)c(=O)c3c2C)cc1OC,,"inconclusive [inhibitor, partial curve]"
COc1ccccc1NC(=O)CSc1nc2sc3c(c2c(=O)n1-c1ccccc1)CCN(C)C3,inactive: -9.03%,
FC(F)(F)c1nnc2sc(-c3cccs3)nn12,inactive: 0.675%,
C=CC(=O)Nc1cccc(Nc2nc(N[C@H]3CC[C@H](N(C)C)CC3)nc3c2ncn3C(C)C)c1,,"inconclusive [inhibitor, full curve]"
COc1ccsc1C(=O)Nc1ccc(F)cc1F,inactive: -13.2%,
Cc1ccc2nc(Cl)c(/C=N/Nc3nc(C)cc(C)n3)c(=O)n2c1,,"inconclusive [inhibitor, single point]"
COc1cc(C2C(C#N)=C(N)OC3=C2C(=O)CC(C)(C)C3)cc2c1OCO2 (configuration not stated),,active: 10 µM
Cc1ccc(NC(=O)c2ccco2)c(NC(=O)c2ccccc2C)c1,,"inconclusive [inhibitor, partial curve, poor fit]"
Cc1ccc(/C=C/c2nc3ccccc3s2)s1,inactive: -8.13%,
O=C(c1ccc(OC2CCN(Cc3ccccc3O)CC2)cc1)N1CCCCC1,,"inconclusive [inhibitor, partial curve, poor fit]"
Cn1c(CCNC(=O)c2cc(COc3ccc(F)c(F)c3)on2)nc2ccccc21,inactive: -26.8%,
Cc1ccc(-c2csc(NC(=O)c3ccc(S(=O)(=O)N4CCc5ccccc54)cc3)n2)cc1,,active: 4.47 µM
CCOC(=O)N1CCC(NC(=O)c2ccc3c(c2)sc2nc(-c4cccc(OC)c4)cn23)CC1,,"inconclusive [inhibitor, full curve, poor fit]"
CCc1ccc(-n2nnnc2SCC(=O)Nc2ccc(NC(C)=O)cc2)cc1,,"inconclusive [inhibitor, partial curve]"
O=C(CCSc1ccccc1)NCCSCc1ccccc1,inactive: 12.5%,
CC(NC(=O)CN(C)Cc1cccc(F)c1)c1ccccc1 (configuration not stated),,"inconclusive [inhibitor, single point]"
Cc1ccccc1N1CCN(C2=NC(=O)/C(=C\c3cccs3)S2)CC1,,"inconclusive [inhibitor, partial curve]"
